Measurements as given in patent US11834480B2 (priority 2020, dated 2023).

Biological target: D-form of SARS-CoV-2 HR1 (SARS CoV-2 D-HR1-biotin) (Severe acute respiratory syndrome coronavirus 2, UniProt P0DTC2)
Format: binding

Sequence	fold improvement in binding over SEQ ID NO:11
ATVKFTYQGEEKQVDISKIKYVLRIGQAIWFRYDEGGGAIGNGWVSEEDAPKELLQMLEKR [SEQ ID NO:51]	6.5 fold
ATVKFTYQGEEKQVDISKIKYVLRIGQAIWFRYDEGGGAIGNGWVSEEDAPKELLQMLGKR [SEQ ID NO:53]	8.8 fold
